Results from the supplement of paper PMC11417369.
± gives the standard deviation of the averaged measurements. The list shows a part of the results.

These sequences were tested on PfAP2-G AP2 domain (GST-tagged) (assay: gcPBM binding intensity (ln(normalized median fluorescence intensity)); higher = stronger DNA binding).
Method in brief: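 After 1 h on an Agilent 4 × 180k array of primer-extended double-stranded 36-bp intergenic genomic probes and negative controls, bound GST-tagged P. falciparum DNA-binding domains were detected with Alexa488 anti-GST antibody and scanned at 488 nm. The domains had been expressed in E. coli, and binding took place in 1× PBS with 1% milk, 0.2 mg/ml BSA, 0.5% salmon testes DNA and 0.03% Triton X-100. Binding intensity is the highest Masliner-normalised natural-log median intensity across replicate spots of either probe orientation.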

| Sequence | gcPBM binding intensity (ln) |
| --- | --- |
| AAATACTGATTTGGTTGTACATGTGCACTATATAAC [XGTACX_site3795] | 11.3 ± 0.79 |
| TTTTGGATGTATTATACATGCATATTATTATAATAT [TGCATGCA_site997] | 9.945 ± 0.092 |
| AAAAAAAAAAAAAAAAAAAAAAAAATCACACATTGG [TGCATGCA_negctrl_site412] | 10.9 ± 0.42 |
| AGAAAAGAAATTAAATGTACACAACTATAACCAAAT [XGTACX_site8084] | 11.3 ± 0.73 |
| TGTACAACAATTTTTGCACACACCAAAACATAAAAT [CACACA_site1598] | 11.1 ± 0.2 |
| ATATATCTACAAATATGTACACACACACATATATAT [XGTACX_site1075] | 11.3 ± 0.67 |
| TTTTATAAAATATAATATAATAATATATGTATAATA [CACACA_negctrl_site1788] | 9.76 ± 0.13 |
| TCATATGTGAAACACACACACACACCCAAAAAAACA [CACACA_site3247] | 10.3 ± 0.41 |
| TGTTTCTTATTTTTTTCACACACTAATCATTTCAAA [CACACA_site8695] | 10.2 ± 0.16 |
| ATTATGTTATTATTTTGTACACATAAATAATACGTT [XGTACX_site816] | 11.2 ± 0.69 |
| GAACAAAAATACTTATGTACACATTAGCAAGGAAAA [XGTACX_site5622] | 11.3 ± 0.73 |
| TGTTAATTTCATTTTCTACACACCTATCCTTTTTTT [CACACA_site8157] | 10 ± 0.11 |
| ACAAATAAATATTCGCGTACTTATATAATATTACGA [XGTACX_site6428] | 11.4 ± 1 |
| AACAAACAAATAGTTTATTTTGATTTTTTTAAAAAT [CACACA_negctrl_site693] | 9.75 ± 0.2 |
| AAACAAAAAAGAAGCACACATATATATATATATATG [CACACA_site2456] | 10.2 ± 0.23 |
| TATACGCATATATACACACACATATATATATATATA [CACACA_site3416] | 10.2 ± 0.3 |
| ATCTGAAAAATTAATAGTACAATTAATAATTAAACC [XGTACX_site8523] | 10.9 ± 0.7 |
| AAAAAAAATATCCGACGTACTATTTTCGTAGAAATA [XGTACX_site6292] | 10.9 ± 0.56 |
| AACTAATAAAAAAAAAAAACATTAAACAGGACAAAT [XGTACX_negctrl_site287] | 10.1 ± 0.078 |

| Sequence | gcPBM binding intensity (ln) |
| --- | --- |
| TAAACAAATAAATAAACACACAATATAGGTATATAT [CACACA_site7739] | 9.73 ± 0.25 |
| TTATTTTTAACGTACGCACACATATAAATATATTTA [CACACA_site1976] | 11.5 ± 0.97 |
| TAAAATATATTGCCAGTGCATAATATATGTAATTAT | 9.93 ± 0.11 |
| TTTTTTAAATATTAAAAATGGGATCTTATAACATAT [GTGCAC_negctrl_site666] | 10 ± 0.2 |
| TGTATAAACCCACGTACACACACTAAGTATATCCAA [CACACA_site1605] | 11.3 ± 0.77 |
| ATTTATTATATATAGTGTACGTTCTTAATTATAATT [XGTACX_site7480] | 11.3 ± 0.73 |
| AATAAAATATACTATTGTACATATGGAACTACTTGA [XGTACX_site8928] | 10.9 ± 0.33 |
| TTGTTTTTAGTTTATACACACCATATTAAAATAATG [CACACA_site5675] | 10.4 ± 0.26 |
| TATATAATATATTAATGTACTTAAAATATATTCTAT [XGTACX_site1235] | 11.1 ± 0.89 |
| TTGTATTACATAAATGTTCTTTATTATTTGATAAAA [CACACA_negctrl_site903] | 9.76 ± 0.11 |
| AATATATTTTTTTTTTGTACATATTGTAAAATAATA [XGTACX_site6805] | 11 ± 0.62 |
| ATATATTAATATACTCGTACATATTCTTATTGTGTA [XGTACX_site3728] | 10.9 ± 0.58 |
| TTCTCAAAGAAGAAAAAGTTTTTTTAATTTTTCTTT [XGTACX_negctrl_site543] | 9.1 ± 0.62 |
| AACCAATTATATTTACGTACGTACGGTTTTTTATAT [XGTACX_site1291] | 11.5 ± 0.64 |
| AATAAAAAATATAACACAAATATGTATATATATATA [TGCATGCA_negctrl_site245] | 9.82 ± 0.37 |
| ACATATAAAATGTATACACACAAATATTACATATAT [CACACA_site1472] | 10.1 ± 0.11 |
| CAAAAAAAAAAAAAAAATAAATAAAGGAAATAAAAA [CACACA_negctrl_site20] | 9.66 ± 0.085 |
| AAAAAAAAAAAAACAAGTACAAAGGATAGAAAAAAA [XGTACX_site4133] | 11.2 ± 0.71 |
| ATAGAATATTGATATTGTACGTTATCTTAAAACAAT [XGTACX_site1702] | 11.1 ± 0.73 |

| Sequence | gcPBM binding intensity (ln) |
| --- | --- |
| ATAAGAACGTCTATGTGTACGCAGCAAAACTGAGTT [XGTACX_site6385] | 11.4 ± 0.88 |
| GTGTAGTTAAAAAAAAGTACAGATTTTTTTTTTTTT [XGTACX_site849] | 11.5 ± 0.88 |
| TATACATTTATGTACACACACATATCTGTATATTTA [CACACA_site5617] | 11.5 ± 0.97 |
| TTTTGTATATATCACATTAAAAGAAAAAAATATATG [GTGCAC_negctrl_site120] | 10.1 ± 0.26 |
| GTATGTGTATGTGTATGTACATATGTATGTATAAAA [XGTACX_site8191] | 11.2 ± 0.69 |
| CACATTTAGAAATAGTTTTATTTTGTATATTCTATT [CACACA_negctrl_site1382] | 10.03 ± 0.078 |
| TCCTCAAAAAAATAAAATAATTTATACTTTTTTAAA [GTGCAC_negctrl_site724] | 9.52 ± 0.23 |
| TATATATATTTCCAGTGTACTTATTTTTTAATCAAT [XGTACX_site8220] | 11.5 ± 0.89 |
| ATTTTTTTGGAATTCACACACAAAAAAAAAAATAAA [CACACA_site2081] | 10.2 ± 0.33 |
| TTCAAAAGATATATCGTGCACATATATATGATGAAA | 10.1 ± 0.26 |
| AATTAGACATAATATACACACATATATTATATATAT [CACACA_site2691] | 9.68 ± 0.2 |
| GCAAAAACAAACGTCACACATACAAAGGCCGTGTAA [CACACA_site6043] | 10.01 ± 0.042 |
| TGGAGATAAAATAAAACACACACATATATATATATA [CACACA_site8683] | 9.97 ± 0.35 |
| ATACATTCTTATTACTGTACAGGGTTAATTATTTGT [XGTACX_site948] | 11 ± 0.62 |
| ATTATTTTATTTATTGGTACGTAATTGTAGATTTCT [XGTACX_site3697] | 11 ± 0.64 |
| ATGTTGAGTATATATACACACATACAGATATATATA [CACACA_site4967] | 10.1 ± 0.24 |
| TCCACACAATTTATAACATGCAAAAAGGCAATAATA [TGCATGCA_site773] | 9.98 ± 0.23 |
| TAGGTATATAAATAATGTACATATAAACTATATAGA [XGTACX_site2597] | 11.1 ± 0.51 |
